Assay results published in the supplement of paper PMC11417369.
± gives the standard deviation of the averaged measurements. This is one part of the list.

Test system: PfAP2-G AP2 domain (GST-tagged)
Test: gcPBM binding intensity (ln(normalized median fluorescence intensity)); higher = stronger DNA binding
Method in brief: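 Binding intensity values are the highest Masliner-normalised natural-log median intensity among replicate spots of either probe orientation. The binding step lasted 1 h in 1× PBS with 1% milk, 0.2 mg/ml BSA, 0.5% salmon testes DNA and 0.03% Triton X-100, using GST-tagged P. falciparum DNA-binding domains expressed in E. coli on an Agilent 4 × 180k array of primer-extended double-stranded 36-bp intergenic genomic probes plus negative controls. Alexa488 anti-GST antibody and a 488 nm scan detected bound protein.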

| Sequence | gcPBM binding intensity (ln) |
| --- | --- |
| CGAACAAACAAATAAACACACAAAAAAAAATATATA [CACACA_site1825] | 9.73 ± 0.21 |
| ATACTTATGATAAATACACACTTGAAATTAAGGATT [CACACA_site4772] | 10.05 ± 0.042 |
| AATGTGAAAAAAAAAAGTACAGACCTAATCAAAAAA [XGTACX_site2486] | 11.5 ± 0.77 |
| AAAAAAAATACATACACACACACACCCACATATATA [CACACA_site3561] | 10.3 ± 0.29 |
| AATATAAAAAAAGAGGAGGGATGGTATACTTGTGGT [CACACA_negctrl_site986] | 10.1 ± 0.11 |
| ATAGAAGGCAACTTGGTGCACAAAAAAAAAAATAAT | 10.5 ± 0.33 |
| CTGGAGTTAAAAATGTGTACCTAAAAAATTTTGTTC [XGTACX_site5554] | 11.3 ± 0.81 |
| ATTATTATATATAAAACACACAATTTTGTTTTCACA [CACACA_site3965] | 9.83 ± 0.042 |
| ATTTTTTAAAAAAACATACACACAAAAAAAAAAAAA [CACACA_site3936] | 9.96 ± 0.45 |
| CATAATATCTCTTTGTGTACATATAGTTATTATTAT [XGTACX_site7688] | 11.4 ± 0.82 |
| ATATAATAATATTAAAGTACATGCATATATATTTAT [XGTACX_site7422] | 10.9 ± 0.54 |
| ACTATTTAAATGCAAAGTACTTTGATAATAAACAAT [XGTACX_site2608] | 11 ± 0.58 |
| TAATATAACAAAAAAATAAAATAAAATAAAAAATAA [CACACA_negctrl_site109] | 9.57 ± 0.085 |
| TATAAACATAAATATACACACAAACATATAGGTATT [CACACA_site6690] | 9.925 ± 0.092 |
| GTATTTTTAAATGACACACACATATATAAATATGTA [CACACA_site6880] | 10.2 ± 0.15 |
| ACAAAAATAAGCAAATGTACATATGTATAATATATT [XGTACX_site2492] | 10.9 ± 0.48 |
| CTTGTATATAAACACACACACACTTTCTTTTTTTAA [CACACA_site8602] | 9.94 ± 0.11 |
| AAAAAAAAAAAAAAAAAAAAAAATATATATATATTT [GTGCAC_negctrl_site502] | 10.9 ± 0.46 |
| ATTAATCAATATAGGCGTACAAAAAAAATAAATTAT [XGTACX_site1513] | 11.6 ± 0.86 |
| CCCCTTAATTTATTTTGTACATATAATTTTTTTTTT [XGTACX_site3270] | 11.1 ± 0.55 |
| ATTATTATTTAAAAAAGTACATTGAAGTTCATAATA [XGTACX_site3575] | 11.4 ± 1.1 |
| ATTCATTTTTTGGGGGGTACACCCTTTTAAACATTT [XGTACX_site4797] | 11.8 ± 1.3 |

| Sequence | gcPBM binding intensity (ln) |
| --- | --- |
| ATATTATAATTGAAGGTGCAAAATGTAATATAGATA [GTGCAC_site9661] | 10.09 ± 0.085 |
| ATTTTTAATGTGATCACACATAAATATTATATATAT [CACACA_site5641] | 10.1 ± 0.15 |
| TGAAATGATATATAAACACACATATATATATATATA [CACACA_site3511] | 9.94 ± 0.42 |
| GTATAAAAAAATATATGTACTTATTTACATATATAT [XGTACX_site4744] | 11.3 ± 0.81 |
| ACTATATTTGCCCTTTTAATCAGAACAAAAAAAAAA [CACACA_negctrl_site1051] | 10.3 ± 0.45 |
| GTAAAAGTTAAAAAAACATGCAAAATTTAAAAAAAA [TGCATGCA_site637] | 9.69 ± 0.057 |
| ATACATATATATATTCTACACACTTATAATATAATA [CACACA_site8782] | 9.885 ± 0.078 |
| ATTATATTCCAAGTTTGTACATATATATAAAAGTAT [XGTACX_site1631] | 11 ± 0.52 |
| ATAATATAAATATTAACACACATCCTTTTATGTATA [CACACA_site6685] | 9.74 ± 0.17 |
| TTTCTTCTGCATTATGCACACTATAATTCGTTAAAA [CACACA_site5568] | 10.2 ± 0.27 |
| TTTTCTTTTACAAAGGGTACATAATTTAAATTCATA [XGTACX_site3876] | 11.3 ± 0.86 |
| AGTATAAAAATAAGCACACACACAAATATATATTTA [CACACA_site923] | 10.3 ± 0.27 |
| AAATAAGCATATACAAACATGCATACATATAAATAA [CACACA_negctrl_site246] | 9.745 ± 0.049 |
| AAAAAAAAAAAATCATGTACTTATTTTTCATTGTTG [XGTACX_site1542] | 11.3 ± 0.83 |
| TATATGCACTTAATATGTACACAAAAAAAAAAAAAA [XGTACX_site6199] | 11.5 ± 1.2 |
| CTTATATTAAAAACTTGTACACATGTTAAGAATTTT [XGTACX_site5857] | 11.3 ± 0.98 |
| TTTATATATTATACATGTACATATTTATTTATATAA [XGTACX_site3474] | 11.3 ± 0.67 |
| TATTTTATAATTTACCGTACATTAATTGTATTATTA [XGTACX_site5722] | 10.9 ± 0.54 |
| ATATATTTTATATGTGTGCACTATATATATATATAT | 10.3 ± 0.47 |
| ATATATTTTAAAGAAAGTACCCACCGTTTGAAGTCA [XGTACX_site2273] | 11.1 ± 0.7 |
| ATTAATATATAACGTGCACACACACCGTTACGTATG [CACACA_site8543] | 10.5 ± 0.14 |
| TGTTATATATATTGACTTAATAAATAAATAAATATA [GTGCAC_negctrl_site590] | 9.65 ± 0.27 |

| Sequence | gcPBM binding intensity (ln) |
| --- | --- |
| TCTTATTTTATAAATATAAATATATATATATATATA [GTGCAC_negctrl_site479] | 9.94 ± 0.3 |
| CTCCTCATATAATTTTGTACATAAAAAATTACCATT [XGTACX_site3879] | 11.2 ± 0.54 |
| TTACAAAACACTTATACACACATATAAATATAAATA [CACACA_site7307] | 10 ± 0.11 |
| TATTTTGCTCATCCATGTACACATAGATATATTTTA [XGTACX_site8244] | 11.4 ± 0.9 |
| TTCTTTTCAGAAGGAAAGAATTATAACATATCATAA [XGTACX_negctrl_site548] | 9.79 ± 0.15 |
| ATATTATGTGAAGAACGTACAAATTTTTACACTATA [XGTACX_site1485] | 11 ± 0.56 |
| AATATATCAAAAATTGGATAGTTTCTTATAAAAAAT [CACACA_negctrl_site39] | 9.73 ± 0.028 |
| CTATAAATAACAGAAAGTACATATACATGGATATAT [XGTACX_site3317] | 11.3 ± 0.8 |
| TAAAAGAAATAAGGTGCACACATATACATATATATA [CACACA_site8037] | 10.5 ± 0.5 |
| TTTCTAAATGTTTATATATATATATATATATAAATA [GTGCAC_negctrl_site397] | 9.65 ± 0.29 |
| TTTTTTTTTTTTTTTACACACTATAGGGAAAAAAAA [CACACA_site1916] | 10 ± 0.33 |
| ACATATATATATTTATATATATATATATATATGTGA [CACACA_negctrl_site613] | 9.58 ± 0.18 |
| ATAAATAAAAATACATGAACAGGTCAGGTTATTTTT [CACACA_negctrl_site1007] | 9.91 ± 0.028 |
| TTATATATAGAATAAACATGCATTTGTATATGAATA [TGCATGCA_site604] | 9.94 ± 0.18 |
| AAAAATATAATATATCTAAAATTTTTCATTAAATAT [XGTACX_negctrl_site274] | 9.7 ± 0.071 |
| AATAAAAAATAAAAAATAAACAGTATACATATATAT [GTGCAC_negctrl_site31] | 9.88 ± 0.071 |
| TCACATACATTACTTACACACCATATTAATATATAC [CACACA_site8047] | 10.2 ± 0.11 |
| TCATATTAATTTGATAGTACATATACTTTGAAGTCC [XGTACX_site3767] | 10.9 ± 0.57 |
| TGTATATAAACAAGGGGTACAATAATATAAATAAAT [XGTACX_site8675] | 11.5 ± 0.93 |
| TATGTATGCCCTAATGCATGTGAACAAAATAATATA [TGCATGCA_site407] | 10.2 ± 0.16 |
| TATTTTAATCGTAAGTGTACTCTTTTAAGTATATGT [XGTACX_site8591] | 11.5 ± 1 |
| ATTATAACACCTCCCCCCCTTTTTTTATGAAGACCA [CACACA_negctrl_site1043] | 11.8 ± 0.86 |

| Sequence | gcPBM binding intensity (ln) |
| --- | --- |
| AAAATTAAAAAAATAAATACATTATATAATTAAAAA [CACACA_negctrl_site1426] | 9.705 ± 0.035 |
| CATTATGTCATAAATGCACACATATATATATACATA [CACACA_site8454] | 10.1 ± 0.18 |
| TATTTAAAAGTATATACACACAACTGGAATGAAAAG [CACACA_site4126] | 10.5 ± 0.15 |
| ATGCAAATAATATAAAGTACACAACATCGCCCAAAG [XGTACX_site1825] | 11.3 ± 0.65 |
| TTTTTTAAATTTTGAATTATAACTACATTAAAGAAA [GTGCAC_negctrl_site279] | 9.8 ± 0.33 |
| AACAGACATAGACACACACACATATATTTATTTATA [CACACA_site7571] | 10.11 ± 0.085 |
| ATTACATAACAATATACACACTATTGATTAAAGAGA [CACACA_site5602] | 9.9 ± 0.028 |
| TGTTGTAACAAAAGTACACACACATTTCTATAAATT [CACACA_site8894] | 11.5 ± 0.98 |
| ATAATATAAATAAAGCGTACTTAATTTTATATATAT [XGTACX_site4626] | 11.2 ± 0.83 |
| TTTATTAGATAACGATAAACGAAAAAAAAAAAATAA [GTGCAC_negctrl_site81] | 9.86 ± 0.23 |
| AGAGAAAGAAAGAAATGTACAAATACCTACACACAT [XGTACX_site3140] | 10.7 ± 0.28 |
| TCAGTTAATGTATATGTACACACGGTGAGTATATAT [CACACA_site3346] | 11.2 ± 0.83 |
| AATGGGGAAGGTTCTACACACAACGCAAATGCCTTA [CACACA_site2758] | 10.2 ± 0.23 |
| AAATTATTATGTATTTGTACACATAAGAATATAAAA [XGTACX_site6841] | 11.4 ± 0.65 |
| TATAAATAATGTTAAACACACATACCGATATATAAT [CACACA_site5499] | 9.935 ± 0.007 |
| AATCAAAAAAAATGTTGTACGCCTAATTATAATTAA [XGTACX_site8906] | 11.6 ± 0.8 |
| AATGAAATAAATAAGGGTACACATAAATATATATAT [XGTACX_site7006] | 11.5 ± 1.1 |
| AAAAAACACCCATACACACACACACCGATATATATA [CACACA_site5808] | 10.1 ± 0.18 |
| TATTCGTGCAATAATAGTACACTTATAAATTATTCA [XGTACX_site8993] | 11.3 ± 0.82 |
| TTTTTTACAAATGATATCATTTCTTTAAATATTAAA [TGCATGCA_negctrl_site279] | 9.965 ± 0.035 |
| CTATAAATGAATGTTTGTACTTAATAATAAAAGAAA [XGTACX_site3170] | 11.1 ± 0.78 |
| TATTTTTTTCATAACAGTACAATAATATATATTTTT [XGTACX_site5739] | 10.6 ± 0.36 |
